The campaign covered roughly 360,000 compounds. About 25,000 (6.9%) were called active. Inconclusive means that the source gave no clear call. Such entries were picked first, then a sample of the others. Calls follow the shape of the dose curve; as a rule, active = well fitted inhibition curve with a large enough effect; inconclusive = small, poorly fitted or top-dose-only effect; inactive = flat fitted curve, though single readings scatter. Where the call is inconclusive, the potency comes from a doubtful curve fit. A structure can be active in one record and inactive in another.
target: Luciferin 4-monooxygenase (Photinus pyralis) (UniProt P08659); experiment: qHTS profiling assay for firefly luciferase inhibitor/activator using purifed enzyme and Km concentrations of substrates (counterscreen for miR-21 project); conditions: purified FLuc, luminescence inhibition; series mostly up to 57.5 µM; also: nearly all actives have a fitted effect of over 55% in size
Chain of UniProt P08659 (P08659 whole entry, looked up): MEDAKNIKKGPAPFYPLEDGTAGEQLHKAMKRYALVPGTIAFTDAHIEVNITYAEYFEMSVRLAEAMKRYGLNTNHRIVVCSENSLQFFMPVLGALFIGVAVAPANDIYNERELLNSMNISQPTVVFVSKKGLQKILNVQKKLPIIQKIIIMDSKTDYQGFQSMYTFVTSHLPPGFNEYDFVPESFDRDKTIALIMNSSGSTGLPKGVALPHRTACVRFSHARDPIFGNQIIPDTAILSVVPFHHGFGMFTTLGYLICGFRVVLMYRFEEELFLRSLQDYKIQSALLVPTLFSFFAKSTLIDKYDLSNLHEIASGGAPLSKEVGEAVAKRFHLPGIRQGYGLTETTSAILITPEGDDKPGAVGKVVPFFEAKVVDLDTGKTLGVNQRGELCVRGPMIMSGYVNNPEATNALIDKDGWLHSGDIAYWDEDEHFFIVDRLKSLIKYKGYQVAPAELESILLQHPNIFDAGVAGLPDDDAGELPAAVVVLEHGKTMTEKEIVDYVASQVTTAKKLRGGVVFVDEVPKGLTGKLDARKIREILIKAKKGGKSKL
Procedure, shortened: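 Purified P. pyralis luciferase (10nM final) with 10uM D-luciferin and 10uM ATP (Km levels) in 50mM Tris acetate pH 7.5, 10mM Mg acetate, 0.01% Tween-20, 0.05% BSA; qHTS 6-point titration, ~60 µM downward; luminescence read.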
Potency is read from the fitted curve at half-maximal effect; tags tell the direction and shape of the fitted curve.

Question: Which Potency does the source give for COc1cccc(C2C(C(=O)/C=C/c3ccco3)=C(O)C(=O)N2CCN2CCOCC2)c1 (centres undefined) here?
Answer: inconclusive: 16.9 µM [inhibitor, partial curve, poor fit]

Question: With O=C(Nc1ccc(S(=O)(=O)N2CCOCC2)cc1)c1ccc(S(=O)(=O)N2CCOCC2)cc1 as the compound, how does the Potency read?
Answer: inactive

Question: With CCc1nnc(NC(=O)c2ccc3ccccc3n2)s1 as the compound, how does the Potency read?
Answer: active: 13.5 µM

Question: Which Potency does the source give for CNC(=O)c1c(NC(=O)C2=COCCO2)sc(C)c1C here?
Answer: inactive

Question: CC(=O)c1cc(C#N)c(SCC(=O)OC(C)C)nc1C was tested. Which Potency did it give?
Answer: inconclusive: 13.5 µM [inhibitor, partial curve]

Question: With Cc1ccn2c(CN3CCOCC3)c(-c3ccccc3)nc2c1 as the compound, how does the Potency read?
Answer: inconclusive: 19 µM [inhibitor, partial curve]

Question: With CC(C)Cn1c(/C=C/c2ccco2)nc2ccccc21 as the compound, how does the Potency read?
Answer: inconclusive: 23.9 µM [inhibitor, partial curve]

Question: For O=C1N=C(N2CCOCC2)S/C1=C\c1cccs1, which Potency is on record?
Answer: inconclusive: 23.9 µM [inhibitor, partial curve, poor fit]

Question: Which Potency does the source give for O=C(CCc1nnc(Cc2ccc(-c3ccccc3)cc2)o1)NCCc1ccccn1 here?
Answer: inconclusive: 33.8 µM [inhibitor, partial curve, poor fit]

Question: How did the Potency turn out when O=C(CCCCCn1nnc2ccccc2c1=O)N[C@H](C(=O)O)c1ccccc1 was run?
Answer: inconclusive: 26.9 µM [inhibitor, partial curve, poor fit]

Question: How did the Potency turn out when Cc1ccc(NC(=O)NC(=O)N(c2ccccc2)S(C)(=O)=O)cc1 was run?
Answer: inconclusive: 26.9 µM [inhibitor, single point]

Question: O=C(Nc1nc2ccccc2s1)c1ccc(N2CCCCC2)c([N+](=O)[O-])c1 was tested. Which Potency did it give?
Answer: active: 9.53 µM

Question: CCN(CC)S(=O)(=O)c1ccc2c(c1)N(CC(=O)Nc1ccc(OC)cc1)C(=O)CS2 was tested. Which Potency did it give?
Answer: inactive

Question: O=C(Nc1nnc(C2=COCCO2)o1)c1cccc(Br)c1 was tested. Which Potency did it give?
Answer: inactive

Question: O=C(Oc1c(Cl)cc(Cl)c2cccnc12)c1ccco1 was tested. Which Potency did it give?
Answer: inconclusive: 26.9 µM [inhibitor, single point]

Question: How did the Potency turn out when Cc1noc(N)c1C(=O)Nc1ccc(C(C)(C)C)cc1 was run?
Answer: active: 3.38 µM

Question: C/C(=N\Nc1cccc2cccnc12)c1ccccc1O was tested. Which Potency did it give?
Answer: active: 1.2 µM

Question: With O=C(Nc1nc2ccc(S(=O)(=O)N3CCCC3)cc2s1)c1ccco1 as the compound, how does the Potency read?
Answer: inconclusive: 19 µM [inhibitor, partial curve, poor fit]

Question: With CCc1ccc(NC(=O)CSc2ccc3nc(-c4ccc(OC)cc4)cn3n2)cc1 as the compound, how does the Potency read?
Answer: active: 2.69 µM

Question: Which Potency does the source give for COc1ccc(Cn2nnnc2C(c2cc3cccc(C)c3[nH]c2=O)N2CCOCC2)cc1 (centres undefined) here?
Answer: inactive

Question: For N#Cc1ccccc1OCc1nnc(-c2ccccc2Br)o1, which Potency is on record?
Answer: active: 5.36 µM

Question: O=C(COC(=O)CCC(=O)c1ccc(F)cc1)Nc1ccc(N2CCOCC2)cc1 was tested. Which Potency did it give?
Answer: inconclusive: 23.9 µM [inhibitor, partial curve, poor fit]

Question: For Cc1[nH]c(=S)c(C#N)c(C)c1Cc1ccccc1, which Potency is on record?
Answer: inconclusive: 23.9 µM [inhibitor, partial curve, poor fit]

Question: For COc1ccc(NS(=O)(=O)c2cc3c(cc2C)N(C(C)=O)CCO3)cc1OC, which Potency is on record?
Answer: inactive

Question: With Cc1cc(OCc2cc(C(=O)N(Cc3nccn3C)C(C)C)no2)cc(C)c1Cl as the compound, how does the Potency read?
Answer: inconclusive: 26.9 µM [inhibitor, single point]

Question: Cc1cc(C)cc(C(=O)n2nc(C)c(S(=O)(=O)N3CCCCCC3)c2C)c1 was tested. Which Potency did it give?
Answer: inactive

Question: Which Potency does the source give for O=C1CC(c2cc(F)cc(F)c2)c2cc3c(cc2N1)OCO3 (centres undefined) here?
Answer: inactive

Question: With CN1CCN(C2=C(Cl)C(=O)N(CCc3ccccc3)C2=O)CC1 as the compound, how does the Potency read?
Answer: inconclusive: 16.9 µM [inhibitor, partial curve]

Question: Which Potency does the source give for COc1cccc(C(=O)Nc2ccc(C(=O)c3ccccc3)cc2)c1 here?
Answer: inconclusive: 26.9 µM [inhibitor, single point]

Question: N#Cc1ccc(-c2ccc(OCC(=O)Nc3cccnc3)cc2)cc1 was tested. Which Potency did it give?
Answer: inconclusive: 26.9 µM [inhibitor, single point]

Question: For Cc1ccc(NC(=O)CSc2ccc(-c3ccc4c(c3)OCO4)nn2)cc1F, which Potency is on record?
Answer: inconclusive: 0.478 µM [inhibitor, full curve, poor fit]

Question: Which Potency does the source give for COc1ccc(C(=O)c2ccc(OC)c(N)c2)cc1N here?
Answer: inconclusive: 37.9 µM [inhibitor, single point]

Question: With CCCCc1nn2c(=O)cc(COC(=O)c3ccccc3NC(=O)c3cccs3)nc2s1 as the compound, how does the Potency read?
Answer: inactive

Question: How did the Potency turn out when O=c1c(NCc2ccccc2Cl)nccn1-c1ccccc1 was run?
Answer: inactive

Question: How did the Potency turn out when CCOC(=O)CCC(=O)Nc1nnc2n1CCS2 was run?
Answer: inactive

Question: CCN1CCN(Cc2ccc(NC(=O)c3ccc(C)c(NC(=O)c4cccc5[nH]ccc45)c3)cc2C(F)(F)F)CC1 was tested. Which Potency did it give?
Answer: inconclusive: 23.9 µM [inhibitor, single point]

Question: How did the Potency turn out when Cc1ccc(C(=O)Nc2nnc(S(=O)(=O)N3CCCCCC3)s2)cc1 was run?
Answer: active: 9.53 µM

Question: With COc1cc(/C=N/N=C2/SCC(=O)N2c2ccc(O)cc2)ccc1O as the compound, how does the Potency read?
Answer: inconclusive: 37.9 µM [inhibitor, partial curve, poor fit]

Question: Which Potency does the source give for CC(C)Nc1nnc(SCC(=O)N2CCN(C(=O)c3ccco3)CC2)s1 here?
Answer: inactive

Question: Which Potency does the source give for CCOC(=O)C(C)N1C(=O)S/C(=C/c2cc(C)n(-c3ccccn3)c2C)C1=O (centres undefined) here?
Answer: active: 8.49 µM

Question: With Cc1c(C(=O)N2CCN(c3ncccn3)CC2)oc2ccc(Cl)cc12 as the compound, how does the Potency read?
Answer: inconclusive: 26.9 µM [inhibitor, single point]

Question: With Cc1ccnc(NC(=O)Cc2ccc([N+](=O)[O-])cc2)c1 as the compound, how does the Potency read?
Answer: inconclusive: 21.3 µM [inhibitor, partial curve, poor fit]

Question: For COc1ccc(Nc2nnc(C)c(=O)[nH]2)c(OC)c1, which Potency is on record?
Answer: inactive

Question: For NC(=O)NC1NC(=O)NC1=O (centres undefined), which Potency is on record?
Answer: inactive

Question: Which Potency does the source give for O=C(CNC(=O)c1cccs1)OCC(=O)c1ccc2ccccc2c1 here?
Answer: inconclusive: 21.3 µM [inhibitor, partial curve, poor fit]

Question: How did the Potency turn out when CCCN1C(=O)c2ccc(C(=O)Nc3nccs3)cc2C1=O was run?
Answer: inconclusive: 12 µM [inhibitor, partial curve, poor fit]

Question: CCCCCCCCCCCCCC(=O)O was tested. Which Potency did it give?
Answer: inconclusive: 19 µM [inhibitor, single point]

Question: With CC/C=C/C(=O)N1CC2(CC(c3cccc(NC(=O)c4ccccc4)c3)=NO2)C[C@@H]1C(N)=O (some centres undefined) as the compound, how does the Potency read?
Answer: inconclusive: 37.9 µM [inhibitor, partial curve, poor fit]

Question: How did the Potency turn out when NC(=O)c1ccsc1NC(=O)c1coc2ccccc2c1=O was run?
Answer: active: 2.39 µM

Question: For c1ccc(-n2cnnc2SCc2nc3ccccc3s2)cc1, which Potency is on record?
Answer: active: 16.9 µM

Question: CCOC(=O)C1CCN(Cc2c(O)ccc3ccccc23)CC1 was tested. Which Potency did it give?
Answer: inconclusive: 37.9 µM [inhibitor, partial curve, poor fit]

Question: With NC(=O)C1CC(=O)N(c2ccc(OCc3ccc(Cl)cc3Cl)cc2)C1 (centres undefined) as the compound, how does the Potency read?
Answer: inconclusive: 9.53 µM [inhibitor, partial curve, poor fit]

Question: Which Potency does the source give for O=C(NCc1cccs1)c1ccc2c(c1)ncn2C1CCCC1 here?
Answer: active: 19 µM

Question: With O=C(OCc1nc2ccccc2[n+]([O-])c1C(=O)c1ccccc1)c1cccnc1 as the compound, how does the Potency read?
Answer: inactive

Question: With Cc1nc(SCC(=O)NC2CCCCC2C)c(C#N)c(C)c1C (centres undefined) as the compound, how does the Potency read?
Answer: inactive

Question: Which Potency does the source give for CCOC(=O)Cc1csc(N/N=C\c2cccc(Br)c2)n1 here?
Answer: inconclusive: 3.79 µM [inhibitor, full curve]

Question: Which Potency does the source give for COc1ccc(-c2csc(NC(=O)c3ccc(N4C(=O)CCC4=O)cc3)n2)cc1OC here?
Answer: inconclusive: 16.9 µM [inhibitor, partial curve]

Question: For O=C(CSc1nc2ccc(NC(=O)c3ccccc3C(=O)O)cc2s1)Nc1ccc(F)c([N+](=O)[O-])c1, which Potency is on record?
Answer: inconclusive: 26.9 µM [inhibitor, partial curve]

Question: How did the Potency turn out when CC(C)OC(=O)N(C)c1ccc(C(O)(C(F)(F)F)C(F)(F)F)cc1 was run?
Answer: inconclusive: 30.1 µM [inhibitor, partial curve, poor fit]

Question: For Cc1cccc(C)c1OCc1cc(C(=O)N2CCC(c3ccccc3)CC2)no1, which Potency is on record?
Answer: inconclusive: 21.3 µM [inhibitor, single point]

Question: O=[N+]([O-])c1ccc(NCc2ccccc2)nc1 was tested. Which Potency did it give?
Answer: active: 21.3 µM

Question: For CC1CCN(Cc2cc(=O)oc3cc4c(cc23)CCCC4)CC1, which Potency is on record?
Answer: inconclusive: 26.9 µM [inhibitor, single point]

Question: With O=C(c1ccc2c(c1)OCCO2)N1CCN(Cc2ccccc2)CC1 as the compound, how does the Potency read?
Answer: inconclusive: 21.3 µM [inhibitor, partial curve, poor fit]

Question: For CC(C)(C)c1ccc(C(=O)N2CCN(C(=O)c3ccco3)CC2)cc1, which Potency is on record?
Answer: inactive

Question: Which Potency does the source give for C/C(=N\Nc1nc(C(C)(C)C)cs1)c1ccccc1 here?
Answer: active: 2.13 µM

Question: For CNC(=O)c1sc2nc(-c3ccc(OC)cc3)cn2c1C, which Potency is on record?
Answer: active: 3.38 µM

Question: COc1ccc(C(=O)Nc2nnc(SCC(=O)NC3CCCC3)s2)c(OC)c1 was tested. Which Potency did it give?
Answer: active: 0.536 µM

Question: How did the Potency turn out when Cc1ccc(-n2cc(CN3CCCN(C=O)CC3)c(-c3ccc(F)cc3)n2)cc1 was run?
Answer: inconclusive: 26.9 µM [inhibitor, partial curve]

Question: O=C(Cc1ccccc1)Nc1cccc(C(=O)N/N=C/c2ccco2)c1 was tested. Which Potency did it give?
Answer: inactive

Question: Which Potency does the source give for Cc1ccc(-c2cccc(CN3CCN(C(C)C)C(CCO)C3)c2)o1 (centres undefined) here?
Answer: inactive

Question: How did the Potency turn out when Cc1ccc2nc(-c3ccc(C)c(NC(=O)Cc4ccccc4)c3)oc2c1 was run?
Answer: inconclusive: 15.1 µM [inhibitor, partial curve]

Question: COc1ccc(-n2nc(C(=O)Nc3ccc(Br)cc3C)c3c4ccccc4n(C)c3c2=O)cc1 was tested. Which Potency did it give?
Answer: inactive

Question: Which Potency does the source give for COc1ccc(NC(=O)CN(C)C(=O)c2ccc(S(=O)(=O)Nc3ccccc3C)cc2)cc1 here?
Answer: inactive

Question: With O=C(O)c1cccc(NC(=O)c2cn(-c3ccccc3)nc2-c2ccc(F)cc2)c1 as the compound, how does the Potency read?
Answer: active: 4.78 µM

From PubChem BioAssay AID588342 (National Center for Advancing Translational Sciences (NCATS), 2011)
